Binding signal data for 14 molecules are collected here from publication PMC12136788.

The list shows a part of the results.

First the molecules themselves.
T1: UNK ZnF1-6 (called full-length) (human, UniProt Q9C0B0 30-357)
T1 sequence: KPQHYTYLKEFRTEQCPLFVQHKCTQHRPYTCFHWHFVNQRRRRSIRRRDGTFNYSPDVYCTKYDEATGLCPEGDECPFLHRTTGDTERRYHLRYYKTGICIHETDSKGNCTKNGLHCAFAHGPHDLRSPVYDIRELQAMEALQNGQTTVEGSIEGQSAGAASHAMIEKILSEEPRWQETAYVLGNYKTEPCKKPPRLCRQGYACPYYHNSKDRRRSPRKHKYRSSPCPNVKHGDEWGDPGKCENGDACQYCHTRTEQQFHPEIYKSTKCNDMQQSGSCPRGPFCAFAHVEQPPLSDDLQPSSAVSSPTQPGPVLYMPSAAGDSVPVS

B1: chr4:52598568:52598706:-|three_prime_utr|ENSG00000109189|control|control|control (ssRNA)
RNA: GGGAGUUCUACAGUCCGACGAUCGCAUUAUAUCACUAUUGUGAAAAGUCACGGCUUCUGGCUUUUGUUUGAUGAUGACAUUGUAGAGGUUGGUUUGCAGAUUAUUCUCCAGUAGUCAUAGAGCAUCAGUAGUAUUUCGGAGAACAACAGAGGAUUGAGCAUCA
B2: ENSG00000198589:be:win_4851|CDS|ENSG00000198589|bound_else_gene|NA|bound_elsewhere_windowed (ssRNA)
RNA: GGGAGUUCUACAGUCCGACGAUCCCAUGUGGAAGUAACUCCUCACACAGCACCUCCUGGUGUCAGUGCAGGCCCAGAUGCAAUCAGCGAGGUGCUAUCUACUCUUUCUUUAGAAGUCAAUAAGUCUCCGGAAACCAAAAAUGACAACAGAGGAUUGAGCAUCA
B3: chr19:50958630:50959316:-|three_prime_utr|ENSG00000167755|control|control|control (ssRNA)
RNA: GGGAGUUCUACAGUCCGACGAUCAUGUGACAUCUACCUCCCGACCUACCACCCCACUGGCUGGUUCCAGAACGUCUCUCACCUAGACCUUGCCUCCCCUCCUCUCCUGCCCAGCUCUGACCCUGAUGCUUAAUAAACGCAGCGCAACAGAGGAUUGAGCAUCA
B4: chr19:38730201:38730298:+|3pUTR|ENSG00000130402|msi1_unk|total|mutant (ssRNA)
RNA: GGGAGUUCUACAGUCCGACGAUCCAGAGAAUUACUAUUUACUUUAUUAACUUACGGAUUUAUUAUAUAAAUAUAUAUUCACCCCGCAACAUAUCUCUGCCGUCUCUCCUGCUCUCAUAAUGAAGACACCGCCGAUUCUCUGCCCAACAGAGGAUUGAGCAUCA
B5: chr9:113042727:113044268:-|CDS|ENSG00000136866|control|control|control (ssRNA)
RNA: GGGAGUUCUACAGUCCGACGAUCCAUCAGAGAGUUCAUACUGGAGAGAAACCGUAUGAGUGUAAUGAAUGUGGGAAAGCCUUUAGCCAAAAGUCUCACCUCAUUGUACAUCAGAGAACUCAUACUGGGGAGAAACCUUAUGAACAACAGAGGAUUGAGCAUCA
B6: chr3:196319341:196319897:-|three_prime_utr|ENSG00000145107|control|control|control (ssRNA)
RNA: GGGAGUUCUACAGUCCGACGAUCAUCACAGGUGCGAGUCACCGUGCCUGGCCAACUAAUGAAAAGUUUAAAGAAUUUAUAUCUAGUUUUGGAUGUUAGGCAUGCACACACAAGUGCAUGCACACUCAUACACAUCAUCUCCACCAACAGAGGAUUGAGCAUCA
B7: chr14:102081487:102081564:-|3pUTR|ENSG00000080824|msi1_unk|total|mutant (ssRNA)
RNA: GGGAGUUCUACAGUCCGACGAUCGAAGAUAAGAUUUCUGUCUACUAAGUGAUGCUGUGAUACCUCCGGCACUAAAGCAGAGCCCGUAAUGCUUUUUGAGUUUCAUGUUGGUUUAUUUUCACAGAUUGGGGUAACGUGCACUGUCAACAGAGGAUUGAGCAUCA
B8: ENSG00000136935:stop:overlap|stop_codon|ENSG00000136935|stop_codon|NA|stop_codon (ssRNA)
RNA: GGGAGUUCUACAGUCCGACGAUCAACCAGCUCCCAAGGGCAGCAUCCGGCCGUCUAUCUCAAACCCUCGGAUACCAUGGUCCUAGAGGGGACUACCCAAGGAUGGAGCUCCGUGGGUUGACACUUUUUCUGUGAAAAGAACACCAACAGAGGAUUGAGCAUCA
B9: chr1:111147767:111147876:+|CDS|ENSG00000134255|unk|total|mutant (ssRNA)
RNA: GGGAGUUCUACAGUCCGACGAUCAUUAAAUAAAUUGUUUCAGUUACCAACACCACCAUUGUCAAGACACCAACUAAAGCGGCCCGAAGAACACAGAUAUCAAAGUGCUGGACGGUCCCUGCUUGAGCCCUUAAUGCAAGGGUACAACAGAGGAUUGAGCAUCA
B10: chr1:20742972:20743075:-|3pUTR|ENSG00000127483|unk|total|mutant (ssRNA)
RNA: GGGAGUUCUACAGUCCGACGAUCUAACCCUUUCUUAUUUGUAUUUGUUUCCGUAUUGUGAAGUUGUGUUAAACCGUACCCGCCCGAAAUACAAAUUUCUGGUUAUCAUUUCUCUUCCCUGUGGCACUUGACAUUUUAAUUGUCCAACAGAGGAUUGAGCAUCA
B11: ENSG00000155506:stop:overlap|stop_codon|ENSG00000155506|stop_codon|NA|stop_codon (ssRNA)
RNA: GGGAGUUCUACAGUCCGACGAUCAGAACGCAUUGCCGCCGGUCCUGACCACCGUGAACGGACAGUCCCCCCCAGAUACCCUUUAGGGCUGGUUUGCCUUAGUUGAGGAAGAAGACCCUCCUAGGGACUCUGUCUGCCAUCCACCAACAGAGGAUUGAGCAUCA
B12: chr21:36896991:36897096:-|CDS|ENSG00000159267|unk|FALSE|bound_elsewhere (ssRNA)
RNA: GGGAGUUCUACAGUCCGACGAUCCAGUGGCUUGGGAAACAUGUGGACUCCGAGGGAGAAAUAAAAUCCGGCCAGCUCUCUCUUAGAUUUGUUUCAUCCUACGUGUCUGAAGUAGAAAUAACCCCAUCUUGUAUACCUGUGGUGCAACAGAGGAUUGAGCAUCA
B13: chr6:4954605:4954706:+|3pUTR|ENSG00000153046|msi1|total|mutant (ssRNA)
RNA: GGGAGUUCUACAGUCCGACGAUCGGAUAAAUACUUCUGAUGAAAAAUCCGCUGAGGAGCAUACCCCAAACCAGACAUAUGCUCCGGAUUCAUGCUGAGAUAUCAAUUGGUUUCCCCUUCUUUUUAAAAUACGUCCAGUUCUUACAACAGAGGAUUGAGCAUCA
B14: ENSG00000156853:stop:overlap|stop_codon|ENSG00000156853|stop_codon|NA|stop_codon (ssRNA)
RNA: GGGAGUUCUACAGUCCGACGAUCCCCCAAACUGUAGCCCUAGAUCUGCUAUCGGGGGCUCCAGUCAGAGGGGCAACGCCCAUUAGAAGGGGAAGGACUGCCUACGUUCAUUUCAUUUUAUGGAGGGUCCCAGAAAAGGGAAGGCAACAGAGGAUUGAGCAUCA

This assay addresses T1, UNK ZnF1-6 (called full-length). The experiment in a line: nsRBNS (natural sequence RNA bind-n-seq); RBNS binding buffer (assumed for nsRBNS): 25 mM Tris pH 7.5, 150 mM KCl, 3 mM MgCl2, 0.01% Triton X-100, 500 ug/ml BSA, 20 U/ml SUPERase-In, 4 C; UNK is unkempt and MSI1 is Musashi-1; names of the RNAs are library labels; protein concentration not given here; high values mean tight binding.
As for B1, the binding signal was found to be 1.6 enrichment R.
The value for B2 was 0.915 enrichment R; that for B3 was 1.13 enrichment R; that for B4 was 1.33 enrichment R.
The value for B5 was 0.346 enrichment R; that for B6 was 0.837 enrichment R.
B7: the binding signal came out at 0.414 enrichment R.
The value for B8 was 0.711 enrichment R; that for B9 was 0.59 enrichment R.
The value for B10 was 0.704 enrichment R; that for B11 was 0.761 enrichment R.
The value for B12 was 1.01 enrichment R; that for B13 was 0.266 enrichment R.
B14 gave a binding signal of 0.702 enrichment R.
